“And” between values parts separate entries of the source, which are not always exact repeats. Equal entries are not always repeated. About 40 (0.2%) of roughly 16,000 compounds were called active. Not shown: some 1% with an inconclusive outcome. Calls follow the shape of the dose curve; as a rule, active = well fitted activation curve with a large enough effect; inconclusive = small, poorly fitted or top-dose-only effect, or another doubt; inactive = no such curve, though single readings can be large or run the other way. Some of the results follow.
These compounds were tested against Rap guanine nucleotide exchange factor 4 (Homo sapiens) (UniProt Q8WZA2) (assay: Validation qHTS for agonist of cAMP-regulated guanine nucleotide exchange factor 4 (EPAC2)). Conditions: EPAC2 Rap1B BODIPY-GDP exchange, fluorescence; activation: active compounds read high.
Chain of UniProt Q8WZA2 (Q8WZA2 whole entry, looked up): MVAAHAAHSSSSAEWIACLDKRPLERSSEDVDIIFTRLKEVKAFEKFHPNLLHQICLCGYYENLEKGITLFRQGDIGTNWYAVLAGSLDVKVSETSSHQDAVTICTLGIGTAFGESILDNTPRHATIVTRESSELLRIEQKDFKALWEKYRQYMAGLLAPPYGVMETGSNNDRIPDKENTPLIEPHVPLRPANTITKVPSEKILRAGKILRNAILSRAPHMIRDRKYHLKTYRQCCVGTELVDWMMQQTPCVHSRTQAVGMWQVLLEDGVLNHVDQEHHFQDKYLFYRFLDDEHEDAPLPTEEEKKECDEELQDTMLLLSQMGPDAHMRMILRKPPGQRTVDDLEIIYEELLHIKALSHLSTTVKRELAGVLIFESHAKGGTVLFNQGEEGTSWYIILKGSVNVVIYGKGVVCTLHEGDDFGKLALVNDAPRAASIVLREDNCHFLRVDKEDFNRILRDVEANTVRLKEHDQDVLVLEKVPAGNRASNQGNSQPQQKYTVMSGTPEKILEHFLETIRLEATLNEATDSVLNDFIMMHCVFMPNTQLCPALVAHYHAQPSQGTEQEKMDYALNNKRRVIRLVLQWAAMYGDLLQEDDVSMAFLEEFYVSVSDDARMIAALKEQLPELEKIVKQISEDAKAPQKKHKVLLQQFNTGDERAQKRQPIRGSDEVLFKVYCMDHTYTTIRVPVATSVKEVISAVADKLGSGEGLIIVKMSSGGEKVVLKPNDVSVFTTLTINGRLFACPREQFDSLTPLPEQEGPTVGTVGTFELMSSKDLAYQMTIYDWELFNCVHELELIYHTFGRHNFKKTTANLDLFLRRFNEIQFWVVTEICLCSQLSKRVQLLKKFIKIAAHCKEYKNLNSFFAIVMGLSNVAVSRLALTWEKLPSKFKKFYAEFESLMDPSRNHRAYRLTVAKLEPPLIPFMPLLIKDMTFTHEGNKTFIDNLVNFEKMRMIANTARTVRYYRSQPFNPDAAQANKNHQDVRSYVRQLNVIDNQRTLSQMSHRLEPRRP
Procedure, shortened: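 Signal normalized against 6.5 mM cAMP as agonist control. Mix of EPAC2 (100 nM), RAP1B-BODIPY-GDP (250 nM) and GDP (50 uM) was read kinetically at 480/540 nm, every 5 min over 30 min, after 5 min room-temperature incubation with compound.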
% is scaled to controls: 0 for no effect and ±100 for the full control effect; potency is read from the fitted curve at half-maximal effect.
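For activation in this document: exchange makes BODIPY-GDP fluorescence drop when released from Rap1B; series mostly up to about 150 µM.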

activation, inactive:
COCC(=O)N1CCC2(CC1)CCN(C(=O)Nc1cccc(C#N)c1)CC2 5.3%
C[C@@H]1CN(Cc2ccc3c(c2)CN(Cc2cccn2-c2cccnc2)CCO3)C[C@H](C)O1 2.92%
CC1(C)CCC[C@]2(C)C3CC(=O)O[C@@]3(C)CC[C@H]12 (stereo partly drawn) -13.5%
COc1ccc(CCN(C)CCCC(C#N)(c2cc(OC)c(OC)c(OC)c2)C(C)C)cc1OC (stereo not drawn) -19.6% and -16% and -13.1%
Clc1ccccc1-c1nc(-n2ccnc2)c2ccccc2n1 -3.07%
COc1ccccc1CN1CC[C@@]2(CCCN(C(=O)c3ccco3)C2)C1 -13.2%
Cc1noc(C)c1C(=O)N1CCC2(CCCN(C(=O)Nc3cccc(C#N)c3)C2)CC1 -14%
Nc1cc(C(Cl)=C(Cl)Cl)c(S(N)(=O)=O)cc1S(N)(=O)=O -14.9% and -2.53% and 1.09%
Cc1ccc(CN2C[C@H](Sc3ccccn3)C[C@H]2C(=O)Nc2ccc3sc(C)nc3c2)c(C)c1 -1.6%
COc1ccccc1CN1CCCC2(CCN(C(=O)c3cc(C(F)(F)F)cc(C(F)(F)F)c3)CC2)C1 0.0138%
OC1(c2ccc3c(c2)CN(Cc2nccs2)CCO3)CCN(c2ccccc2F)CC1 10.5%
COc1ccccc1CN1CCCC2(CCN(C(=O)c3ccco3)CC2)C1 -6.92%
COc1ccc(-c2nc3cnc(Nc4ccccc4)nc3n(Cc3cccs3)c2=O)cc1 1.12%
CN(C)c1ncc2nc(-c3ccc(F)cc3)c(=O)n(C)c2n1 -9.61%
Cn1ccc2cc(NC(=O)Nc3cccnc3)ccc21 -28.3%
COc1ccc(SCCN2CC[C@@H](C)CCC2=O)cc1 -6.06%
CN1C(CSCC(F)(F)F)Nc2cc(Cl)c(S(N)(=O)=O)cc2S1(=O)=O (stereo not drawn) -5.53%
O=CC(=O)c1ccc(Cl)cc1 -27.5%
O=S1(=O)CCO[C@H]2Cc3ccccc3[C@H]2N1Cc1cccc(Cl)c1 -14.9%
Cc1c(C(=O)N(C)Cc2nccs2)sc2ncnc(NCC3CCCO3)c12 (stereo not drawn) -7.19%
Cc1cc(-c2ccnc(-n3ncc(C(=O)NC(C)(C)CO)c3C3CC3)n2)c(C)s1 -4.84%
Cn1c(=O)c(-c2ccc(F)cc2)nc2cnc(OCc3ccccc3)nc21 -8.53%
CCNc1ncc2nc(-c3ccccc3)c(=O)n(C3CC3)c2n1 -11.7%
O=C(O)C#CC(=O)O -17.7%
CN(C)c1ncc2nc(-c3ccc(Cl)cc3)c(=O)n(Cc3ccc(F)cc3)c2n1 2.81%
COC(=O)c1ccccc1C(=O)NCC1Cc2cc(-c3nc(C)cnc3C)ccc2O1 (stereo not drawn) -20.8%
COc1ccc(CNc2ccnc(-c3ccc(N(C)C)cc3)n2)c(OC)c1 2.01%
COc1cccc(CNc2ncnc3sc(C(=O)N4CC5CCC4C5)c(C)c23)c1OC (stereo not drawn) -0.672%
C=C1[C@@H](O)[C@H](CC(C)C)N(Cc2ccccc2Br)S1(=O)=O -22.2%
Cc1cc[n+](CC(=O)c2ccccc2)c2ccccc12 -6.37%
N=c1c[n+](N2CCOCC2)[n-]o1 -22.3%
O=C(c1cc(C(F)(F)F)cc(C(F)(F)F)c1)N1CCC2(CCN(Cc3ccccc3)CC2)CC1 -13.5%
CCN(c1ccccc1)c1cc(NC)[n+](C)c(C)n1 -3.88%
CN1CCN(CCCN2c3ccccc3Sc3ccc(Cl)cc32)CC1 -7.1% and -31.1% and -8.09%
Clc1ccc2nc(-c3ccccc3)[nH]c2c1 -8.34%
CCCCNC(=O)[C@@H]1CC=C[C@@H]2CCN(Cc3ccc(Cl)c(Cl)c3)C(=O)[C@@H]21 -4.78%
O=[N+]([O-])c1ccc2c(c1)C=CC2 -0.0666%
O=C1c2ccccc2C(=O)c2c1ccc(O)c2O -30% and -2.78%
CC(=O)OC1CC2C(C)(C)C(O)CC[C@@]2(C)C2CC[C@@]3(C)C(c4ccoc4)OC(=O)C4O[C@@]43[C@]12C (stereo partly drawn) 2.19%
CCOC(=O)C[C@H]1c2ccc(C(F)(F)F)cc2S(=O)(=O)N1c1ccccc1 -44.2%
COc1cccc(N2[C@@H](CC(=O)O)c3ccccc3S2(=O)=O)c1 -2.1%
Nc1nc(=S)c2[nH]cnc2[nH]1 -2.84% and 7.55%
O=c1c2cc(O)c(O)cc2oc2cc(O)c(C3OC(CO)C(O)C(O)C3O)c(O)c12 (stereo not drawn) -7.25%
O=C(Nc1ccccc1)N1CC[C@@]2(CCCN(C(=O)c3cccc(F)c3)C2)C1 2.73%
COC(=O)c1cc(CNC(=O)c2ccncc2)cc(NC(=O)c2ccccc2Cl)c1 -9.97%
CCCC(=O)Nc1ncnc2c1ncn2[C@@H]1O[C@@H]2COP(=O)(O)O[C@H]2[C@H]1OC(=O)CCC 3.32%
O=c1c(CCc2ccccc2)nc2cnc(N3CCNCC3)nc2n1-c1ccccc1 8.18%
COCCn1c(=O)c(-c2ccc(F)cc2)nc2cnc(Oc3cccc(Cl)c3)nc21 -5.94%
N#Cc1cccc(NC(=O)N2CC[C@@]3(CCCN(C(=O)c4ccncc4)C3)C2)c1 -25.9%
O=C(c1ccncc1)N1CCC2(CCCN(c3ccccn3)C2)CC1 -18.9%
COc1ccc2c(c1)-c1nc(-n3ncc(C(=O)NC(C)(C)CO)c3C3CC3)ncc1CC2 -16%
CN(C)CCC[C@@]1(c2ccc(F)cc2)OCc2cc(C#N)ccc21 -1.24% and -12.6%

Potency, active:
CC(=O)[C@]1(O)Cc2c(O)c3c(c(O)c2[C@@H](O[C@H]2C[C@H](N)[C@H](O)[C@H](C)O2)C1)C(=O)c1ccccc1C3=O 100 µM

— PubChem BioAssay AID1645887 (National Center for Advancing Translational Sciences (NCATS), 2021)
